# Measured values reported in article PMC12136788.
# This is one part of the list.
# T1: UNK ZnF1-6 (called full-length) (human, UniProt Q9C0B0 30-357)
# T1 sequence: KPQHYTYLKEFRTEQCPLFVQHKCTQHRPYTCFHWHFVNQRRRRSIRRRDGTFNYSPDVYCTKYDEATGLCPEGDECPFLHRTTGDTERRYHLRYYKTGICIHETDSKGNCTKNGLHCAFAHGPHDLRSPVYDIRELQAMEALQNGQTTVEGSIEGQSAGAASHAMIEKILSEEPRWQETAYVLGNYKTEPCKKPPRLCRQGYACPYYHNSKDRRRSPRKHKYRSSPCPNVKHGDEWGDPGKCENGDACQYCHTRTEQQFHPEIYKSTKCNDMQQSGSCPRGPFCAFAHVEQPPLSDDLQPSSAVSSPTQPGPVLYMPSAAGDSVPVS
# B1: chr17:64498535:64498649:-|3pUTR|ENSG00000108654|unk|FALSE|unique (ssRNA)
# RNA: GGGAGUUCUACAGUCCGACGAUCUUAAACUGAGGCUUUAAUUGAUGUUAAUGCCUUAUGUCAAAUGUAAAGUUAGAAUUUGCUAGGGCUGGGAUAGGGAGUGAUAUUUCUAGGACUUAGACAUUGAAAACUAAUUCAGCCUGUCAACAGAGGAUUGAGCAUCA
# B2: chr15:57961136:57961294:-|CDS|ENSG00000128918|control|control|control (ssRNA)
# RNA: GGGAGUUCUACAGUCCGACGAUCGAGAUUUAAGACGAUGGAUGAAGUUAUCGAAAGAGCCAAUAACUCAGACUUUGGACUCGUAGCAGCUGUCUUUACUAAUGACAUCAACAAGGCCCUCACAGUGUCUUCUGCAAUGCAAGCCAACAGAGGAUUGAGCAUCA
# B3: chr5:138349049:138349150:+|3pUTR|ENSG00000120709|msi1|FALSE|unique (ssRNA)
# RNA: GGGAGUUCUACAGUCCGACGAUCGAGAAGGUCUACAGUUAUCAUUAUUUUAAUUCCAUUACUUUCAGUCUGGAAAACUAAGCUAGUCAGAACUGUCAUCUUGCUUCCCAAUCUAAGAACCUGUGGCCCUGGAACACUUUUCAACAACAGAGGAUUGAGCAUCA
# B4: ENSG00000152661:stop:overlap|stop_codon|ENSG00000152661|stop_codon|NA|stop_codon (ssRNA)
# RNA: GGGAGUUCUACAGUCCGACGAUCCUUCAAGCAGAGCCAGCAGUCGUGCCAGCAGCAGACCUCGGCCUGAUGACCUGGAGAUCUAGAUACAGGCUUGAAAGCAUCAAGAUUCCACUCAAUUGUGGAGAAGAAAAAAGGUGCUGUCAACAGAGGAUUGAGCAUCA
# B5: chr6:49492913:49492980:+|3pUTR|ENSG00000031691|msi1_unk|total|mutant (ssRNA)
# RNA: GGGAGUUCUACAGUCCGACGAUCUGUUGAAUAUUUUCUACUGUCAUCAAAACAUAUUCCCAAAAAGUAUUAAAAAGGAACCUCCGCACAUUUAUUUUAUUAAAACAAGAAAACCCAAAAUAUAUAAACCUUUUCUUAUUAUGACAACAGAGGAUUGAGCAUCA
# B6: chr9:77717828:77717929:-|3pUTR|ENSG00000156052|unk|total|mutant (ssRNA)
# RNA: GGGAGUUCUACAGUCCGACGAUCGUGCCUCAUAUCUGAAACAAAGGGAAAUAACACACCCAUUCAAAAGUAAAUAAAUCUCCCCGAAGUUUUUGUUUUUAACAUUUCCAUAUAAAGAGCUCUGUUGAAUGUCAUGAACCGACUCAACAGAGGAUUGAGCAUCA
# B7: chr15:76949589:76949706:+|3pUTR|ENSG00000117906|msi1_unk|FALSE|overlapping (ssRNA)
# RNA: GGGAGUUCUACAGUCCGACGAUCAUAAAUUUUUGUUUUUGUUCUAAGUAGAUUUAAUUUGGGAACUGACAGGACAAUGUUUUUAGGUUUAGCAUUUUGUUUAAAAACCUUUAAAGAAACCUUUAGAAGGACUUAGACCUCACACAACAGAGGAUUGAGCAUCA
# B8: chr1:77949188:77949289:-|CDS|ENSG00000162613|unk|FALSE|unique (ssRNA)
# RNA: GGGAGUUCUACAGUCCGACGAUCUUCAAAGGUCAGGCAGUUCCUGCUCCGACUGGGGCUCCUCCAGGUGGUCAGCCAGAUUAUAGUGCAGCCUGGGCUGAGUAUUAUAGACAACAAGCAGCCUAUUAUGCCCAGACAAGUCCCCAACAGAGGAUUGAGCAUCA
# B9: ENSG00000101596:stop:overlap|stop_codon|ENSG00000101596|stop_codon|NA|stop_codon (ssRNA)
# RNA: GGGAGUUCUACAGUCCGACGAUCUUAGUUGUAAUAAAAUAAAAGAUAAUGACAAAGAAGAUGGCUGCUUCUAUUUCAGGUUAUAGUUGAAGUCCUGCCUAAUCAACCUGUGAAGUUAGUACCUAAAAUUAAACCACCUACACCCAACAGAGGAUUGAGCAUCA
# B10: chr4:108667468:108667493:+|3pUTR|ENSG00000198856|msi1_unk|total|mutant (ssRNA)
# RNA: GGGAGUUCUACAGUCCGACGAUCGAAUUUUUUUUCCUGCUGGCCUAUUGCUAUACCAAUGAUGUUGAGUGGCAUUUUCUUUUCCGUUUUUCAUUAAAAUAUAUUCCAUAUCUACAACUAUAAUAUCAAAUAAAGUGAUUAUUUCAACAGAGGAUUGAGCAUCA
# B11: chr19:51415897:51416167:-|CDS|ENSG00000142512|control|control|control (ssRNA)
# RNA: GGGAGUUCUACAGUCCGACGAUCGCCACACUGAGCUGGGUCCUGCAGAACAGAGUCCUCUCCUCGUCCCAUCCCUGGGGCCCUAGACCCCUGGGGCUGGAGCUGCCCGGGGUGAAGGCUGGGGAUUCAGGGCGCUACACCUGCCAACAGAGGAUUGAGCAUCA
# B12: chrX:119243754:119243940:+|3pUTR|ENSG00000101856|msi1|total|mutant (ssRNA)
# RNA: GGGAGUUCUACAGUCCGACGAUCAGCUGCAAAAAAGCAUAUUUUCUGUGUUUCUGGACUGCACUGUUGUCCUUGCCCUCACACCGACACUCAGACACCCUCACAAACACAGCCGUCUACCGUCCGGAUUAAAACCGGAUCUGACAACAGAGGAUUGAGCAUCA
# B13: chr8:28970260:28970371:+|CDS|ENSG00000147421|unk|total|mutant (ssRNA)
# RNA: GGGAGUUCUACAGUCCGACGAUCUCUUCCUCUACAGCUACAGCUUCCACACAGACGCAGCAUUCGGGAAUGUCCCCGUCACCCCGCAACAGUUAUGAUACUUCCCCACAGCCUUGCACUACCAAUCAAAAUGGGAGGGAGAAUCAACAGAGGAUUGAGCAUCA
# B14: ENSG00000107863:be:win_3101|CDS|ENSG00000107863|bound_else_gene|NA|bound_elsewhere_windowed (ssRNA)
# RNA: GGGAGUUCUACAGUCCGACGAUCCGAUCCAGGAGAGCAGCAACCUAAACGAAGAGGACACUGGAGUCACUAACAGGGAUCUAAUUAGUCGAAGAAUAAAAGAAUACAACAAUCUGAUGAGCAAAGCAGAACAGUUGCCAAAAACAACAGAGGAUUGAGCAUCA
# Target: T1, UNK ZnF1-6 (called full-length)
# Assay: nsRBNS (natural sequence RNA bind-n-seq); RBNS binding buffer (assumed for nsRBNS): 25 mM Tris pH 7.5, 150 mM KCl, 3 mM MgCl2, 0.01% Triton X-100, 500 ug/ml BSA, 20 U/ml SUPERase-In, 4 C; UNK is unkempt and MSI1 is Musashi-1; names of the RNAs are library labels; protein concentration not given here; high values mean tight binding
row,Binder,binding signal [enrichment R]
1,B1,0.878
2,B2,0.556
3,B3,0.404
4,B4,0.815
5,B5,1.17
6,B6,0.438
7,B7,1.55
8,B8,0.745
9,B9,1.46
10,B10,1.32
11,B11,0.641
12,B12,0.437
13,B13,0.625
14,B14,1.04
